# Test results reported in the supplement of paper PMC3334620.
# The full ranking holds about 33,000 sequences; the median of “E-score (-0.5 to 0.5)” is about -0.011, and the highest 2% start at about 0.28. This is one part of the list.
# Target: T1, Gcr1 (UniProt P07261)
# T1 sequence: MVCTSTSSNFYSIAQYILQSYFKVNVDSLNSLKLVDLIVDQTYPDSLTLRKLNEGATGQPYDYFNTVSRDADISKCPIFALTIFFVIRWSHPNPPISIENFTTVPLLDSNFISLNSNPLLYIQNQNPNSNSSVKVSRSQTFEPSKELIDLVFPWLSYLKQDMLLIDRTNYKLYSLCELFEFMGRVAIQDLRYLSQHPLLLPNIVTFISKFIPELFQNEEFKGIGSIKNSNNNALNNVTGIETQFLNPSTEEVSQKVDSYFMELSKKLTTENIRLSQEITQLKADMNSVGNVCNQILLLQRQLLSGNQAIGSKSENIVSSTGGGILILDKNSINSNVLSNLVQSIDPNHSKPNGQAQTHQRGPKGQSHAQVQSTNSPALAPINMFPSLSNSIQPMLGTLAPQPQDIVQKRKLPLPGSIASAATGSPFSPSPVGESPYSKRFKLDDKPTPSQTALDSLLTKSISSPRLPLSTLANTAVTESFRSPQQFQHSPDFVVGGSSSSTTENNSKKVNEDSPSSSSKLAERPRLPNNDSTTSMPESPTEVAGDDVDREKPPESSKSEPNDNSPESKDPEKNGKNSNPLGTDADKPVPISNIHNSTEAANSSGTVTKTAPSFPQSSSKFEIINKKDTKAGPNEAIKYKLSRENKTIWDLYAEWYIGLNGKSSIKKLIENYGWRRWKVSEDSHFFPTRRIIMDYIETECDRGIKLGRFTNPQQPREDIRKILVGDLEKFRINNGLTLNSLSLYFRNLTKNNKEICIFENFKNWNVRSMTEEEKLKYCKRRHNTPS
# Test: PBM E-score (8-mer binding enrichment) (E-score (-0.5 to 0.5)); higher = stronger / more preferred TF binding; most listed sequences are background and not binding sites
# Details: protein concentration: 100 nM; construct: GST-full length
# Summary of the method: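 Universal all-10-mer Agilent arrays, fresh or stripped once, were converted to double-stranded form by primer extension. GST-tagged yeast transcription factors from PURExpress in vitro transcription/translation, full-length or DNA-binding domain only, were applied at about 100-200 nM and detected with fluorescent anti-GST. After masliner normalisation, the Universal PBM Analysis Suite scored each ungapped eight-base word together with its reverse complement by E-score.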
row,Sequence,PBM E-score
1,ACATCTTG,-0.0325
2,CCCACCCC,0.192
3,AGCCTCTA,0.0722
4,CAGAGTGC,-0.056
5,GGCTCGTA,-0.121
6,AACCCTAC,-0.0892
7,ATGGACCC,0.0825
8,ATTATACG,0.262
9,ACGGCCTC,-0.246
10,ACTTGCTG,-0.0458
11,CTCATTAC,-0.00627
12,TCCGCCAA,-0.0715
13,GTTTACAA,0.094
14,GGCATGCA,-0.213
15,GACTGCAC,-0.177
16,ACGACTTA,-0.0262
17,GGTCACAC,-0.238
18,CCGAGTAA,0.0742
19,CTGAAGAC,-0.0415
20,CTACCCTA,-0.168
21,TCCTCTAA,0.282
22,TAGGGTGA,-0.105
23,CCAGACAA,-0.0554
24,TAACCCGA,-0.125
25,TACTACGA,-0.0595

row,Sequence,PBM E-score
1,ATCGGGAC,0.0526
2,CGTCTCCA,0.284
3,ACAAATAC,0.161
4,CAGCACCG,0.137
5,AGTCCAGA,-0.0665
6,AGGAGCTA,-0.115
7,CGGAGATA,-0.0368
8,ATCCCGTA,0.125
9,AAGGGATC,-0.155
10,ACCATGAG,-0.214
11,CTATCGTA,0.111
12,AGATCCTC,-0.144
13,CAATTTTC,0.00662
14,ACACCACG,-0.0678
15,CAATGAAC,-0.05
16,CCCCCTGA,-0.366
17,ACGAGCAA,-0.202
18,CCTTATCC,-0.0592
19,AACATAAT,0.119
20,ATTATGGC,0.0727
21,GTGGTATA,0.0831
22,CAAAATGA,0.0843
23,ATCTGTTA,0.00343
24,CGATCCCA,0.121
25,AAGAAACT,-0.142

row,Sequence,PBM E-score
1,AGGGGGCA,-0.0999
2,ACAACGAA,-0.102
3,ACAATTCC,0.0286
4,CGACCACA,-0.00432
5,AGCAGCAG,-0.0192
6,ACTCGCGA,0.033
7,GACGCGCC,0.231
8,GCCCAGGC,-0.146
9,ACTGCAAT,-0.0156
10,CGCCGAAG,-0.1
11,ACCACTGG,0.0029
12,CGGGATAG,-0.172
13,CAAGCTAC,0.108
14,AGGGCTTG,-0.209
15,CTACGGAG,-0.0903
16,GCCAGACC,-0.206
17,ATGAAGGG,-0.174
18,GACAGTAA,-0.14
19,TGAATAAA,0.191
20,CGTTGGGA,0.153
21,ATCGTTTA,-0.0539
22,AGCTGGAG,-0.0939
23,ATGCGCCC,0.0661
24,CACGTTAG,-0.0687
25,CTACGTCA,0.104

row,Sequence,PBM E-score
1,ACGAGTCT,-0.192
2,CTGGCAGA,0.0263
3,CACCAATC,0.103
4,ACAGAGCC,-0.0515
5,CCGTGTCG,-0.0404
6,ATCACGGA,-0.0946
7,GGCGTTAA,-0.161
8,ACAGCGGT,-0.219
9,GTCAACTA,0.049
10,TATCATCA,0.0211
11,AATACGCG,0.161
12,CCCCTATA,0.269
13,AATGTCGG,0.0294
14,CATCGAAA,-0.0269
15,ACTCGATA,-0.0494
16,CAGGCCAA,-0.0461
17,ATCTCAAC,-0.213
18,CCCTATTA,0.0111
19,ACAGGGTG,0.041
20,AGAGCGCG,-0.178
21,AATGACCC,-0.201
22,GAATCAGC,0.0819
23,CCAAAGCG,-0.0616
24,ATATTGGG,0.159
25,AGTTAACT,-0.0401

row,Sequence,PBM E-score
1,CATGTCAA,-0.255
2,CGAGCCTA,-0.0984
3,AATGGGCG,0.15
4,AAGAGTTA,-0.133
5,GCATATGA,-0.015
6,AAACAGTA,-0.0229
7,GACACAAC,-0.114
8,CCACGGTA,-0.0916
9,ACGCGCTG,0.12
10,TGGGGGAA,-0.124
11,GTCACCAA,0.0813
12,AATGGGGA,0.236
13,CTGCACGA,-0.167
14,AAACGTTT,-0.139
15,ACCGATCC,-0.0861
16,AGCTCGTG,0.0258
17,GCCTCCAC,-0.0325
18,CATACCGC,-0.0616
19,CCTTTAGC,-0.119
20,ACCCGTCC,-0.245
21,GAGGAGAC,-0.167
22,AGTGTTCA,0.0609
23,CTGTGCCC,-0.111
24,CGATACGC,0.0218
25,CCTCGATC,-0.148

row,Sequence,PBM E-score
1,ATAGGGCC,-0.316
2,TCCTAGAA,0.174
3,CCGAGTTC,-0.00269
4,TCCGGGCA,0.107
5,ACGTGCTG,0.0435
6,AAGCGCGC,0.0817
7,GAAACCAA,0.147
8,CCATGAGA,-0.0617
9,GCTATGTA,-0.0481
10,AGGGTTAT,0.0654
11,AGCCTGTC,-0.141
12,CAAAATGC,-0.0148
13,AGTGCACA,-0.206
14,AATATGGC,-0.0457
15,CTAACGCC,-0.227
16,ACCAGGCA,-0.0973
17,AGAGGGCC,-0.16
18,AAATTGGG,0.295
19,ATTCTACA,-0.0176
20,TACTTAGA,0.0754
21,ACATTGGG,0.0408
22,ATCAGTGG,0.168
23,GTGGGATA,0.0848
24,GTTGCGGA,0.0873
25,CAGTAACA,-0.0453

row,Sequence,PBM E-score
1,CCAAGCCC,-0.093
2,ACGGACGA,0.207
3,TTGATCAA,0.0444
4,CCTTACAG,0.0754
5,CCGCAGTC,0.0536
6,AGCTCTCC,-0.23
7,TACAACCA,0.16
8,CTTTTATA,0.266
9,ACGAATCC,0.288
10,AGAGAGCC,-0.234
11,TAACCTGA,-0.2
12,AGCATCTG,0.115
13,ATGTTTTA,0.179
14,GAGTTAGC,-0.159
15,ACCTTTGG,-0.061
16,GTGCGCAA,0.0634
17,AGGGGACT,-0.0785
18,CCTTCATA,-0.144
19,GCCCCGCC,-0.00757
20,ACTAACGA,0.0263
21,CGTCGTGA,-0.0907
22,GTCGTCTA,0.0946
